Measurements taken from PubChem BioAssay AID686970 (National Center for Advancing Translational Sciences (NCATS), 2013).
Among all 360,000 compounds or so, about 6,000 (1.7%) were called active. The shares of active, inactive and inconclusive entries below differ from those in the screen. The call rests on the fitted dose curve; in most records, active means well fitted cell-killing curve with a large enough effect; inconclusive means small, poorly fitted or top-dose-only effect, or effect the other way; inactive means flat fitted curve, though single readings scatter. No potency is given beside an inconclusive call; the fits are too rough.

Experiment: qHTS for induction of synthetic lethality in tumor cells producing 2HG: qHTS for the HT-1080-NT fibrosarcoma cell line;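 further: NT is the 2HG producing partner of a matched IDH1 knockdown line; nearly all actives have a fitted effect of over 55% in size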;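 on activity, negative = less viability: 0% = DMSO-treated cells and -100% = media-only wells without cells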
Details: HT-1080-NT fibrosarcoma viability, CellTiter-Glo ATP luminescence, 48 h; activity, negative = less viability: at 46.1 µM (top of the series) unless noted
Summary of the method: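 HT-1080-NT fibrosarcoma cells (2HG-overproducing), 750 cells/well in RPMI with 5% FBS, dosed after 2 h and incubated 48 h at 37C. CellTiter-Glo luminescence normalized to DMSO and no-cell wells; concentration-response curves fitted and classed.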
Potency means the concentration at half of the fitted maximal effect; tags describe the fitted curve by direction and shape.

Row | SMILES | Potency | activity, negative = less viability
1 | O=C(COc1cccc(Oc2ccccc2)c1)Nc1ccc(SC(F)F)cc1 | inconclusive [cytotoxic, single point] | 
2 | O=C(Cc1ccc(-c2ccccc2)cc1)NCc1cccnc1 | inconclusive [cytotoxic, full curve] | 
3 | CC(=O)c1c(N2CCN(C)CC2)nc(=S)n(Cc2ccccc2)c1C | inactive | 
4 | COC(=O)CSc1nc(N2CCCCC2)c2c(c1C#N)CCCC2 | inactive | 
5 | COc1ccc(C(C)=O)cc1COC(=O)c1ccc(OCc2c(C)noc2C)cc1 | inactive | 
6 | CC(C)CCNC(=O)COc1ccc2c(c1)C(=O)CC(C)(C)O2 | inactive | 
7 | Clc1ccc(CSc2ccc(-c3ccccn3)nn2)cc1 | inconclusive [cytotoxic, single point] | 
8 | CCc1ccc(NS(=O)(=O)c2ccc3[nH]cc(C(=O)N4CCc5ccccc54)c(=O)c3c2)cc1 | inconclusive [cytotoxic, partial curve] | 
9 | O=C(NN1C(=O)c2cc(Br)ccc2NC1c1ccccc1Cl)c1ccncc1 (stereo not given) | inactive | 
10 | COc1ccc(OC)c(/C=N/NC(=O)CSc2cc(C)nc3c(OC)cccc23)c1 | inconclusive [cytotoxic, partial curve] | 
11 | CCCN(CCC)Cc1c(C(=O)N/N=C/c2ccc(Br)cc2)nnn1-c1nonc1N | inconclusive [cytotoxic, single point] | 
12 | C#CCOCCOCCOCCNc1nc(N2CCN(C(=O)CCCCCCCCCCNC(=O)Cn3cc(C[C@@H](C)O)nn3)CC2)nc(N2CCN(C(=O)CCCCCCCCCCNC(=O)Cn3cc(C[C@@H](C)O)nn3)CC2)n1 | inconclusive [cytotoxic, single point] | 
13 | Cc1ccc(NC(=S)Nc2nc(CC(=O)Nc3ccccc3)cs2)cc1 | active: 7.08 µM | 
14 | CCN(CC)c1nc(C#N)cc(-c2ccc(OC)cc2)n1 | inconclusive [cytotoxic, single point] | 
15 | CCN(C(=O)CSc1ccc2ccccc2n1)C1CCCCC1 | inactive | 
16 | Cc1cccc2cc(CN(CC3CCCO3)C(c3nnnn3Cc3ccco3)C(C)C)c(=O)[nH]c12 (stereo not given) | inconclusive [cytotoxic, single point] | 
17 | CCOC(=O)CN1C(c2ccc(O)cc2)Nc2ccc(Br)cc2C1c1ccccc1 (stereo not given) | active: 16.4 µM | 
18 | O=C(N/N=C/C(Br)=C/c1ccccc1)C1CC1 | inactive | 
19 | C/C(=N\NC(=O)c1ccccc1)c1cccc(Br)c1 |  | inconclusive: 4%
20 | COc1cc(NC(=O)c2ccc(N)nc2)cc(C(=O)Nc2cccc(C(F)(F)F)c2)c1 | inactive | 
21 | O=C(Nc1ccc2c(c1)CN(Cc1ccccc1O)CC2)C1CCCO1 (stereo not given) | inactive | 
22 | Cc1ccc(Nc2nnc(SC3CCOC3=O)s2)c(C)c1 (stereo not given) | inactive | 
23 | CCOC(=O)C1(CCc2ccccc2)CCN(Cc2cc(OC)c(OC)cc2OC)CC1 | inconclusive [cytotoxic, single point] | 
24 | Cc1cc(Cl)ccc1NC(=S)NCc1ccc(F)cc1 | inconclusive [cytotoxic, single point] | 
25 | CC(=O)Nc1cccc(-c2ccnc3c2CC(C)(C(=O)NCc2ccc(F)c(F)c2)O3)c1 (stereo not given) | inconclusive [cytotoxic, full curve] | 

Row | SMILES | Potency | activity, negative = less viability
26 | Cc1ccc(CN2C(=O)CSc3ccc(C(=O)NC4CC4)cc32)cc1 | inactive | 
27 | CCN(CC(=O)NCc1ccc(Cl)cc1)C(=O)NCc1ccc(Cl)cc1 | inconclusive [cytotoxic, partial curve, poor fit] | 
28 | CC(C)C[C@H](NC(=O)c1[nH]cnc1C(=O)N[C@@H](Cc1ccccc1)C(=O)OC(C)(C)C)C(=O)OC(C)(C)C | inconclusive [cytotoxic, single point] | 
29 | Nc1ncnc2c1ncn2[C@@H]1O[C@H](CO)[C@@H](O)[C@H]1O | inconclusive [rising, single point] | 
30 | CNC(=O)NC(=O)COC(=O)c1n[nH]c2ccccc12 | inconclusive [rising, partial curve] | 
31 | Cc1ccc(NC(=O)C2(C)CCN2Cc2cccc3c2OCO3)cc1O (stereo not given) | inconclusive [cytotoxic, single point] | 
32 | COc1ccc(OC)c(CNC(=O)c2nn(C)c3c2CS(=O)(=O)c2ccccc2-3)c1 | inactive | 
33 | CN(C)CCNc1ccc2nnn3c4ccc(O)cc4c(=O)c1c23 | active: 23.1 µM | 
34 | Clc1nc(-c2ccccc2)c2ccccc2n1 | inactive | 
35 | CC(NC(=O)c1ccc(N2CCNCC2)c([N+](=O)[O-])c1)C12CC3CC(CC(C3)C1)C2 (stereo not given) | active: 16.4 µM | 
36 | Cc1cccc(-c2cnc(C(O)Cc3ccccc3)[nH]2)c1 (stereo not given) | inconclusive [cytotoxic, single point] | 
37 | CCNC(=O)C1(C)CCCN1C(=O)c1cnc2ccccc2n1 (stereo not given) | inactive | 
38 | CN1CCC(N(C)C(=O)/C=C/c2cn(-c3ccccc3)nc2-c2cccs2)CC1 | active: 25.9 µM | 
39 | CC1(C)CC(=O)C(=Cc2cn(CCC#N)nc2-c2ccc(Cl)cc2)C(=O)C1 | inactive | 
40 | Cc1cc(C)c(S(=O)(=O)N2CCN(S(=O)(=O)N3CCOCC3)CC2)c(C)c1 | inactive | 
41 | Cc1ccc(NC2=C(N3CCCCC3)C(=O)c3ccccc3C2=O)cc1 | inconclusive [cytotoxic, single point] | 
42 | Cc1ccc(NC(=O)c2cccc3c2C(=O)N(C2CCCCC2)C3)cc1 | inconclusive [rising, partial curve] | 
43 | Cc1cccc(NC(=O)CSCC(=O)Nc2sccc2C#N)c1 | inactive | 
44 | CN(CC(=O)N1CCC(C(N)=O)CC1)S(=O)(=O)c1ccc2ccccc2c1 | inactive | 
45 | O=[N+]([O-])/C=C/c1cn(Cc2ccc(F)cc2)c2ccccc12 | inconclusive [cytotoxic, single point] | 
46 | CO[C@@H]1CN(C)C(=O)c2cc(NC(=O)NC3CCCCC3)ccc2OC[C@@H](C)N(CCc2ccccc2)C[C@@H]1C | inconclusive [cytotoxic, single point] | 
47 | Nc1ccc2ccccc2c1C(=O)c1ccccc1 | inactive | 
48 | Cc1ccc(S(=O)(=O)N2CCN(C(=O)c3c(C)nn(-c4ccccc4)c3Cl)CC2)cc1 | inactive | 
49 | N#Cc1c(N)nc(-c2ccccc2)nc1-c1ccccc1 | inconclusive [cytotoxic, single point] | 
50 | COc1ccc(-c2noc(CN(C)C(=O)c3ccc4c(c3)OCO4)n2)cc1 | inactive | 

Row | SMILES | Potency | activity, negative = less viability
51 | C[n+]1cc2c3c(ccc2c2ccc4cc5c(cc4c21)OCO5)OCO3 | active: 2.51 µM | 
52 | Cc1cc(Cl)ccc1N(CC(=O)NCCSCc1ccco1)S(C)(=O)=O | inconclusive [rising, single point] | 
53 | COc1c(C)cc(C(=O)C2CCCN(C(=O)c3cc(C)on3)C2)cc1C (stereo not given) | inactive | 
54 | Cc1ccc(N2NC3(CCN(C(N)=O)CC3)NC2=O)cc1 | active: 5.8 µM | 
55 | CC(C)c1cc(C(=O)NNC(=S)NC2CCCCC2)cs1 | inactive | 
56 | COc1ccc(Cc2c(-c3ccccc3)nc3ccc(Br)cn23)c(C)c1 | inconclusive [cytotoxic, single point] | 
57 | Cc1nonc1C(=O)N1CCCC(Nc2ccc(C(C)C)cc2)C1 (stereo not given) | inactive | 
58 | C[C@H](CO)N1C[C@H](C)[C@@H](CN(C)C(=O)NC2CCCCC2)Oc2c(NC(=O)Nc3ccc(C(F)(F)F)cc3)cccc2C1=O | inconclusive [cytotoxic, single point] | 
59 | Cc1ccc2c(c1)[C@H]1[C@H](CO2)[C@H](c2ccccc2)[C@]2(C)C(=O)Nc3ccccc3C(=O)N12 | active: 5.8 µM | 
60 | CC(C)CC(NS(=O)(=O)OCC(Cl)(Cl)Cl)c1ccccc1 (stereo not given) | inconclusive [cytotoxic, single point] | 
61 | O=C(NNc1nc2ccc(F)cc2s1)c1cccc(F)c1 | inconclusive [cytotoxic, partial curve, poor fit] | 
62 | O=C(Nc1nnc(-c2ccco2)o1)c1ccc([N+](=O)[O-])s1 | inconclusive [cytotoxic, single point] | 
63 | CCOc1ccccc1CNc1ccc(O)cc1 | active: 23.1 µM | 
64 | Cc1cc(C)nc(Nc2nc(C(N)c3ccccc3)cs2)n1 (stereo not given) | inconclusive [cytotoxic, single point] | 
65 | Cc1nc(-c2ccc(Cl)cc2)sc1C(=O)NN | inconclusive [cytotoxic, partial curve] | 
66 | Cc1csc2c(N3CCN(C(=S)Nc4ccc(F)cc4F)CC3)ncnc12 | inconclusive [cytotoxic, single point] | 
67 | COc1ccccc1NC(=O)Nc1cc(NC(=O)Nc2ccccc2OC)c(C)nc1C | active: 16.4 µM | 
68 | C[N+](C)(C)CCCN1C(=O)CCCC1=O | inactive | 
69 | O=C(NC1CCCCC1)c1nc(C2CCNCC2)oc1-c1ccccc1 | inconclusive [cytotoxic, single point] | 
70 | Cc1cc(C)cc(NC(=O)c2ccc([N+](=O)[O-])o2)c1 | inconclusive [cytotoxic, single point] | 
71 | COc1ccc(OC)c(N2C(=O)CC(Cc3cc(C)cc(C)c3)C2=O)c1 (stereo not given) |  | inconclusive: -28.4% [cytotoxic]
72 | CC(OC(=O)C1CC(=O)N(Cc2ccccc2)C1)C(=O)Nc1cccc(C#N)c1 (stereo not given) | inactive | 
73 | Cc1csc2c(N3CCN(C(=O)c4ccc(C(C)(C)C)cc4)CC3)ncnc12 | active: 18.4 µM | 
74 | CCc1nnc(NC(=O)CSc2nnc3c(C)cc4c(C)ccc(C)c4n23)s1 | active: 5.8 µM | 
75 | COc1cc(C=NNc2ccccc2)ccc1OC(=O)c1ccccc1 | inconclusive [cytotoxic, partial curve] | 
